From the supplement of paper PMC10126150
Sequences with one replicate were seen in a single cluster, so their values are uncertain.

Test system: ATP
Assay: switch fluorescence ratio, 500 uM ATP over buffer (Cy3 cluster intensity, sum of 5 cycles each) (fold (ratio)); higher = stronger signal-on switching upon ATP binding; sequences stand for … in TCGTCGGCAGCGTCAGATGTGTATAAGAGACAGTTTTTTTTTTTTTTTTTTTTTTTTT…TC
Conditions: aptamer strand: ATP DNA aptamer (quencher-CACCTGGGGGAGTATTGCGGAGGAAGG + anchor), 100 nM annealed; ATP concentration: 500 uM; one replicate
Method in brief: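 Five buffer/ATP imaging cycles were run on Cy3-labelled switching-strand clusters on a modified Illumina MiSeq flow-cell, with NaOH stripping and re-annealing between cycles. In each cycle, clusters annealed to 100 nM quencher-labelled ATP aptamer were imaged in selection buffer, then after 15 min with 500 uM ATP at 22 °C. Per cluster, the fluorescence ratio is summed target-cycle over summed buffer-cycle Cy3 intensity, averaged per switch-domain sequence. Only clusters within 100-1000 RFU were kept.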
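Note: ATP exposure 15 min at 22 °C before imaging.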

AGGTCCTCA was tested, and the switch fluorescence ratio was 0.993.

CTTGGCGCTT was tested, and the switch fluorescence ratio was 1.04.

Sequence CACCAATTGC has a switch fluorescence ratio of 1.28.

For ATACAATGTG, the switch fluorescence ratio was 1.04.

TGATCCAAGT was tested, and the switch fluorescence ratio was 0.997.

ACCTCGAAGC gave a switch fluorescence ratio of 1.54.

CATTTTCGCT gave a switch fluorescence ratio of 0.968.

TCCGCATAT showed a switch fluorescence ratio of 3.12.

Sequence CACTTTAGCC has a switch fluorescence ratio of 1.02.

With TTACAGGAAA the switch fluorescence ratio was 1.05.

In the case of CCGCCTATGT, the switch fluorescence ratio is reported as 1.81.

CAATAGCTGT showed a switch fluorescence ratio of 1.

In the case of ATTCGCGGCA, the switch fluorescence ratio is reported as 1.05.

In the case of CAGTCCTATT, the switch fluorescence ratio is reported as 0.981.

AAGAGCCCGA gave a switch fluorescence ratio of 0.99.

TTAAATCC was tested, and the switch fluorescence ratio was 1.03.

Sequence GGGTGTCACA has a switch fluorescence ratio of 0.951.

Work on GGATACGAGT yielded a switch fluorescence ratio of 1.03.

CAATCCCAGC was tested, and the switch fluorescence ratio was 1.08.

With ATGCCCATCG the switch fluorescence ratio was 0.997.

With ACGGTTGTCA the switch fluorescence ratio was 0.977.

Sequence AAGTACAAAA has a switch fluorescence ratio of 1.14.

Sequence GCGAAACGAA has a switch fluorescence ratio of 0.979.

TTGCGACCA was tested, and the switch fluorescence ratio was 1.05.

AAGTAGTTCT gave a switch fluorescence ratio of 1.

For TCATGTAGTC, the switch fluorescence ratio was 0.983.

CCGCTAAGCT gave a switch fluorescence ratio of 3.92.

Work on CCTCGGGGT yielded a switch fluorescence ratio of 1.03.

ACGTACAACG was tested, and the switch fluorescence ratio was 1.28.

Sequence TTATTATCCT has a switch fluorescence ratio of 1.03.

AGATTCCCAC was tested, and the switch fluorescence ratio was 0.954.

Sequence GATATACCAG has a switch fluorescence ratio of 1.04.

For TATGGTAACG, the switch fluorescence ratio was 0.965.

Work on AGCGCCCGGG yielded a switch fluorescence ratio of 1.07.

With GTGAGGGAGA the switch fluorescence ratio was 1.02.

For CCTGGGTTAC, the switch fluorescence ratio was 1.53.

With TTATCACCTC the switch fluorescence ratio was 1.03.

GTGTGGGTG was tested, and the switch fluorescence ratio was 0.982.

AATCGTAAAC showed a switch fluorescence ratio of 1.11.

Work on ACTAGTCAGC yielded a switch fluorescence ratio of 1.02.

With ACCTAAGTTC the switch fluorescence ratio was 1.09.

With GGGGCTACGG the switch fluorescence ratio was 1.01.

For CGTCAGCGTG, the switch fluorescence ratio was 1.02.

In the case of ATATGAGTAG, the switch fluorescence ratio is reported as 0.966.

For ACCCCCACAT, the switch fluorescence ratio was 1.2.

In the case of CGAAGAGGGT, the switch fluorescence ratio is reported as 1.

For CGGAAGAAGG, the switch fluorescence ratio was 1.03.

TCAGGATGCT showed a switch fluorescence ratio of 0.96.

TGCGACATCC showed a switch fluorescence ratio of 1.11.

TTAACCCCTC gave a switch fluorescence ratio of 1.11.

GGGCTTAGG showed a switch fluorescence ratio of 1.05.

GCTGTGACGT gave a switch fluorescence ratio of 1.02.

With AAGAGTGCTT the switch fluorescence ratio was 1.01.

TTTTGACCAG showed a switch fluorescence ratio of 0.968.

TTTGCGCGTG gave a switch fluorescence ratio of 1.

For GAGTTCGGAG, the switch fluorescence ratio was 0.953.

With CTATGAAAG the switch fluorescence ratio was 0.962.

CATCAATAGT was tested, and the switch fluorescence ratio was 1.08.

Work on TGTTTGGTCT yielded a switch fluorescence ratio of 1.02.

AAGTGATAAT showed a switch fluorescence ratio of 1.02.

GGTTGGTTAT showed a switch fluorescence ratio of 1.06.

With AATGTGATAG the switch fluorescence ratio was 0.983.

Sequence ACCATTATAA has a switch fluorescence ratio of 1.03.

Work on TGGTAAACTT yielded a switch fluorescence ratio of 1.07.

Sequence GGTGAACCGA has a switch fluorescence ratio of 1.02.

With TAGGCTATGT the switch fluorescence ratio was 0.958.

Work on TATCGAACAC yielded a switch fluorescence ratio of 1.06.

In the case of CGACTCATCT, the switch fluorescence ratio is reported as 1.09.

Sequence CTGTTAAACT has a switch fluorescence ratio of 1.02.

For TAACATGTTA, the switch fluorescence ratio was 0.994.

GCCCTGAGGG gave a switch fluorescence ratio of 1.01.

With TGGGAGACCG the switch fluorescence ratio was 1.03.

In the case of ACTCAACGGA, the switch fluorescence ratio is reported as 1.12.

GGTCCGTCTG was tested, and the switch fluorescence ratio was 1.

TTTATGGGCT gave a switch fluorescence ratio of 1.02.

With TTAATGAACT the switch fluorescence ratio was 1.02.

AGTGAGACCC gave a switch fluorescence ratio of 0.98.

With TAAACCGCTC the switch fluorescence ratio was 1.98.

For TTTCACGCTG, the switch fluorescence ratio was 0.989.

Work on GTTTCGGTAT yielded a switch fluorescence ratio of 0.982.

Sequence CGTCAGCTCT has a switch fluorescence ratio of 1.03.

AGGCATCGTC was tested, and the switch fluorescence ratio was 0.997.

Sequence GGCGGGCAGC has a switch fluorescence ratio of 1.

CTGAGGTC was tested, and the switch fluorescence ratio was 0.857.

In the case of GGTGAATGGT, the switch fluorescence ratio is reported as 1.

With CGTCCAAGAA the switch fluorescence ratio was 1.07.

In the case of CTTAGTCTAC, the switch fluorescence ratio is reported as 1.07.

Sequence AAGCTGACAT has a switch fluorescence ratio of 1.03.

Work on ACGAAGTCGA yielded a switch fluorescence ratio of 1.01.

ACCCAGGTCT showed a switch fluorescence ratio of 1.68.

Work on AGTAAAGGTT yielded a switch fluorescence ratio of 0.964.

Work on CAGTCAAAGA yielded a switch fluorescence ratio of 1.02.

GGAGTCAGGA gave a switch fluorescence ratio of 1.

Work on GTCCGGCGGC yielded a switch fluorescence ratio of 1.01.

For AGTTTTCTAA, the switch fluorescence ratio was 0.992.

With TTAGTCTTGG the switch fluorescence ratio was 0.977.

TTACGAAGCC gave a switch fluorescence ratio of 1.44.

GTTGAGAAGC gave a switch fluorescence ratio of 1.05.

TTCAGGTATA was tested, and the switch fluorescence ratio was 1.01.

Work on TCGGGCCGAT yielded a switch fluorescence ratio of 1.08.

TGGGCGTCA was tested, and the switch fluorescence ratio was 1.02.

Sequence ACATAGATAA has a switch fluorescence ratio of 1.03.

AACTAAACGG gave a switch fluorescence ratio of 1.16.

TGGACCCTTT showed a switch fluorescence ratio of 1.02.

CATTGCCGCG was tested, and the switch fluorescence ratio was 1.02.

Sequence AATTGGCGC has a switch fluorescence ratio of 0.974.

In the case of ATTGACAGTG, the switch fluorescence ratio is reported as 1.05.

In the case of GCCCAGGTTT, the switch fluorescence ratio is reported as 0.995.

ATTATCAGGC was tested, and the switch fluorescence ratio was 0.919.

CTTAAAACCA gave a switch fluorescence ratio of 0.971.

In the case of GAGTACCTGA, the switch fluorescence ratio is reported as 1.07.

With TTTGAGCTAG the switch fluorescence ratio was 0.95.

Sequence TACCCTTCTC has a switch fluorescence ratio of 1.46.

In the case of GGTAGTCAGG, the switch fluorescence ratio is reported as 0.989.

Sequence CTGGAAGGCG has a switch fluorescence ratio of 0.991.

Work on TCGTGAGAAG yielded a switch fluorescence ratio of 1.04.

With TATCGCGGAC the switch fluorescence ratio was 1.79.

Work on GCATTCGGAC yielded a switch fluorescence ratio of 1.22.

With GAAAGTATCC the switch fluorescence ratio was 1.11.

With CAACGGGCTG the switch fluorescence ratio was 0.939.

Sequence GGAGTCCCTA has a switch fluorescence ratio of 0.983.

Work on GCCTTATCGC yielded a switch fluorescence ratio of 1.05.

For AATAGTCATA, the switch fluorescence ratio was 1.

TCAGATCCAG was tested, and the switch fluorescence ratio was 0.955.

Sequence CAATTTTAGT has a switch fluorescence ratio of 0.977.

For GAAGACCCCC, the switch fluorescence ratio was 1.54.

For GTGTGAGAGA, the switch fluorescence ratio was 0.961.

With AATAGCACCC the switch fluorescence ratio was 1.08.

Sequence TCACCTTCTC has a switch fluorescence ratio of 1.89.

ACTAGATCCT was tested, and the switch fluorescence ratio was 1.11.

Sequence TAATAGAAGA has a switch fluorescence ratio of 0.942.

For ATCAGTCATG, the switch fluorescence ratio was 0.987.

Work on AAGGGTTG yielded a switch fluorescence ratio of 0.987.

TATACCATAA was tested, and the switch fluorescence ratio was 0.985.

In the case of AGGGTGTGTG, the switch fluorescence ratio is reported as 1.02.

For ACGACGGCGT, the switch fluorescence ratio was 1.01.

CTGCTACTAG was tested, and the switch fluorescence ratio was 1.08.

GCTTGATA was tested, and the switch fluorescence ratio was 0.955.

TACAGGAGCG showed a switch fluorescence ratio of 0.976.

GCAGTATATT was tested, and the switch fluorescence ratio was 1.09.

With GCAATTTGTT the switch fluorescence ratio was 1.04.

ATAGCCCGGT was tested, and the switch fluorescence ratio was 1.01.

CGGGTATCAC showed a switch fluorescence ratio of 1.02.

AAGATGGCTA showed a switch fluorescence ratio of 1.04.

CCAGGTGTAT gave a switch fluorescence ratio of 2.64.

For TGACTTACAG, the switch fluorescence ratio was 1.01.

Sequence GACTCCCTTG has a switch fluorescence ratio of 0.995.

For TTCTACTTGT, the switch fluorescence ratio was 0.988.

Sequence GTAGCAGCTG has a switch fluorescence ratio of 1.

With TCGTTTAGTC the switch fluorescence ratio was 0.961.

Work on AGATGCGCTA yielded a switch fluorescence ratio of 0.996.

Work on AGAACTAATT yielded a switch fluorescence ratio of 0.954.

TTGTGTTCCT showed a switch fluorescence ratio of 0.987.

TTATTAAGAG gave a switch fluorescence ratio of 1.03.

In the case of TGCTCAACGC, the switch fluorescence ratio is reported as 1.04.

ATGAAAATG was tested, and the switch fluorescence ratio was 1.02.

TCGGCTCATC showed a switch fluorescence ratio of 1.02.
